From paper PMC5334639, “Nucleophosmin Interacts with PIN2/TERF1-interacting Telomerase Inhibitor 1 (PinX1) and Attenuates the PinX1 Inhibition on Telomerase Activity” (Scientific Reports, 2017)
No constants are given. Whether binding was seen depends on the method and setting. For part of these data: Binding seen in cells or lysates may run through a third protein. Some results given as binding are weak or reduced against the parent protein; the word gives no strength. For part of these data: Sequences can lack the tags named with a protein.

By UniProt entry, the sequences of proteins in these tests, tags left out. Where a name states a change or a piece, a line headed by the entry shows the natural chain unless it says otherwise. Residues count along the entry.
UniProt P06748: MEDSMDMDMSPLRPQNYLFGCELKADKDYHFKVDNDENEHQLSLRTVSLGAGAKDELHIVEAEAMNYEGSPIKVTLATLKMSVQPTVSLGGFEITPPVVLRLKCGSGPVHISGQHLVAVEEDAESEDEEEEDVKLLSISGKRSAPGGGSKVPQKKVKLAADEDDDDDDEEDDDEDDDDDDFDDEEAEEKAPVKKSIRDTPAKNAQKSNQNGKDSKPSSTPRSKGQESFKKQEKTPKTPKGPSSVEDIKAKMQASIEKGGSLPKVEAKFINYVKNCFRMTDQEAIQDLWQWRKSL
myc-NPM aa83–294: residues 83-294 of P06748
UniProt O14746: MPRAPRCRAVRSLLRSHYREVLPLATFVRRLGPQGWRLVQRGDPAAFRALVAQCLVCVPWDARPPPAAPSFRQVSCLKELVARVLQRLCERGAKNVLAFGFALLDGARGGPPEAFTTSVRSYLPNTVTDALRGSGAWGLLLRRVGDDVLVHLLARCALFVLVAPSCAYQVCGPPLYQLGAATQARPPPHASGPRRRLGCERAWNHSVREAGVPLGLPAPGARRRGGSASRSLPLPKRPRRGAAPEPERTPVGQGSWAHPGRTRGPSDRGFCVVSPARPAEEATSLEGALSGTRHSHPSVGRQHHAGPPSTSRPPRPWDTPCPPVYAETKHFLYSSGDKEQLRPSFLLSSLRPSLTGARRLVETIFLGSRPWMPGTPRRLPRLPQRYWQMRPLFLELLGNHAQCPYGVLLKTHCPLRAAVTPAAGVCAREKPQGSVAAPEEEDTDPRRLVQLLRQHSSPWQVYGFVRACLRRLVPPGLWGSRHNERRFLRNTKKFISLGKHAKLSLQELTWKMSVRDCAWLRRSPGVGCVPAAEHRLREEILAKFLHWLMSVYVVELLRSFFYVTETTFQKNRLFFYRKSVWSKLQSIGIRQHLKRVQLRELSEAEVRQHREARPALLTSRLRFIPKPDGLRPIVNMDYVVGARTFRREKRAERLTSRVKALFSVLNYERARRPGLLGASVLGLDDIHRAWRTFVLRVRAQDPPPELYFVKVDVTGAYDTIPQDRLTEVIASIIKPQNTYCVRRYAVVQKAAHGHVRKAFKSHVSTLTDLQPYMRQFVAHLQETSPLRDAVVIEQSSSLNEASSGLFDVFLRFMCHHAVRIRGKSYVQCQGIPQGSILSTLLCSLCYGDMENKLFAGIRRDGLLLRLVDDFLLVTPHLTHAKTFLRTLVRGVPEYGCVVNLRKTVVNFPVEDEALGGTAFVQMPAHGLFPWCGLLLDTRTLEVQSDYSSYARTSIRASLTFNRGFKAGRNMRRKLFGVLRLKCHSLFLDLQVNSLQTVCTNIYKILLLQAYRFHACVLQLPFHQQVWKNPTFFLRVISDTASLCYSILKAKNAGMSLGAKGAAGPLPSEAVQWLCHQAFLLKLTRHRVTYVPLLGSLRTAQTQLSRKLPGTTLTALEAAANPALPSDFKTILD
myc-hTERT aa170–546: residues 170-546 of O14746
myc-hTERT aa326–620: residues 326-620 of O14746
myc-hTERT aa523–924: residues 523-924 of O14746

Experiments:
myc-PinX1 = molecular target: T1, myc-PinX1 (UniProt Q96BK5); assay: co-IP; transfected HEK293T lysates (50 mM Tris pH 7.6, 150 mM NaCl, 1 mM EDTA, 1% Triton X-100), anti-myc antibody 9B11 and protein A beads, 4 °C; western blot; in some panels with overexpression or siRNA of NPM or PinX1
T1 sequence: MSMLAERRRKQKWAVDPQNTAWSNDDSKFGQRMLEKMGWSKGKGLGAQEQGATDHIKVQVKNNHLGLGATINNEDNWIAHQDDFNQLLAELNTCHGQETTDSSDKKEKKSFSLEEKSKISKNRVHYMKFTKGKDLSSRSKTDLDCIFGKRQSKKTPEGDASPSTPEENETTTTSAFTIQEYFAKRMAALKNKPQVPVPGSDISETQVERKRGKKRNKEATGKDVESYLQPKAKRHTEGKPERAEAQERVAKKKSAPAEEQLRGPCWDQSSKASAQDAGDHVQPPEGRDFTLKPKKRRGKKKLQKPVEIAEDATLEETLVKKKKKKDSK

myc-PinX1-C = molecular target: T2, myc-PinX1-C (UniProt Q96BK5); assay: as above
T2 sequence: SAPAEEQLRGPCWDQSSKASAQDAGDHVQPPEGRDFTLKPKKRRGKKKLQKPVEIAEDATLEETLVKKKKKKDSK

[1] = molecular target: T3, endogenous PinX1 (HEK293T) (human (endogenous in HEK293T)) (UniProt Q96BK5); assay: co-IP; endogenous proteins from HEK293T lysate, precipitated with anti-PinX1 or anti-hTERT antibody and protein A beads; western blot
T3 sequence: T1 sequence

Myc-His-PinX1 = molecular target: T4, Myc-His-PinX1 (UniProt Q96BK5); assay: co-IP; transfected HEK293T lysates (50 mM Tris pH 7.6, 150 mM NaCl, 1 mM EDTA, 1% Triton X-100), anti-myc antibody 9B11 and protein A beads, 4 °C; western blot; in some panels with overexpression or siRNA of NPM or PinX1
T4 sequence: T1 sequence

myc-NPM aa83–294 = myc-NPM aa83–294 (UniProt P06748); assay: as above
[2] = molecular target: T5, PIN2/TERF1-interacting telomerase inhibitor 1 (PinX1), purified wild type (UniProt Q96BK5); assay: pull-down; purified PinX1 (3 mg) immobilised on a 1 ml HiTrap NHS-activated column; 1 mg NPM or NPM variant in PBS, 30 min at room temperature; washed with PBS, eluted with PBS with 1.5 M NaCl; SDS-PAGE; both purified
T5 sequence: T1 sequence

[3] = molecular target: myc-hTERT aa326–620 (human) (UniProt O14746); assay: co-IP; transfected HEK293T lysates (50 mM Tris pH 7.6, 150 mM NaCl, 1 mM EDTA, 1% Triton X-100), anti-myc antibody 9B11 and protein A beads, 4 °C; western blot; in some panels with overexpression or siRNA of NPM or PinX1
myc-NPM E56A = myc-NPM E56A (UniProt P06748); assay: as above
Myc-hTERT (human) = Myc-hTERT (human) (UniProt O14746); assay: as above
myc-NPM K73A = myc-NPM K73A (UniProt P06748); assay: as above
[4] = molecular target: myc-hTERT aa170–546 (human) (UniProt O14746); assay: as above
Myc-NPM (wild type) = Myc-NPM (wild type) (UniProt P06748); assay: as above
myc-NPM D55A = myc-NPM D55A (UniProt P06748); assay: as above
myc-NPM E61A = myc-NPM E61A (UniProt P06748); assay: as above
myc-NPM E61A + E63A = myc-NPM E61A + E63A (UniProt P06748); assay: as above
myc-NPM E63A = myc-NPM E63A (UniProt P06748); assay: as above
[5] = molecular target: myc-hTERT aa523–924 (human) (UniProt O14746); assay: as above
myc-NPM K54A = myc-NPM K54A (UniProt P06748); assay: as above
[6] = molecular target: T6, nucleophosmin (NPM), purified wild type (UniProt P06748 1-294); assay: pull-down; purified NPM (2 mg) immobilised on a 1 ml HiTrap NHS-activated column; 1 mg PinX1 truncation in PBS, 30 min at room temperature; washed with PBS, eluted with PBS with 1.5 M NaCl; SDS-PAGE; both purified
T6 construct: nucleophosmin, wild type, cloned into pRSETA-HisSumo; HisSumo tag removed by Sumo protease; Truncations end at aa294; also called wild-type NPM; purified NPM; source: E. coli BL21(DE3)-pLysS, purified (HisTrap HP, gel filtration)

## endogenous hTERT (HEK293T) (from UniProt O14746 1-1132)
myc-PinX1
  binding: binds
myc-PinX1-C
  binding: binds
[1]
  binding: binds

## FLAG-NPM (from UniProt P06748 1-294)
Myc-His-PinX1
  binding: binds
myc-PinX1
  binding: binds

## hTERT expressed from pCI-neo hTERT (from UniProt O14746 1-1132)
Myc-His-PinX1
  binding: binds
myc-NPM aa83–294
  binding: no binding

## NPM 117–294 (from UniProt P06748 117-294) (domain or fragment)
[2]
  binding: no binding (tested: 1 mg loaded)

## NPM 193–294 (from UniProt P06748 193-294) (domain or fragment)
[2]
  binding: no binding (tested: 1 mg loaded)

## endogenous nucleophosmin (HEK293T) (from UniProt P06748 1-294)
[1]
  binding: binds

B1: FLAG-PinX1 (protein, UniProt Q96BK5 1-328)
chain: T1 sequence
[3]
  binding: binds
myc-NPM E56A
  binding: binds
Myc-hTERT (human)
  binding: binds
myc-NPM K73A
  binding: binds
[4]
  binding: binds
Myc-NPM (wild type)
  binding: binds
myc-NPM D55A
  binding: binds
myc-NPM E61A
  binding: binds
myc-NPM E61A + E63A
  binding: binds
myc-NPM E63A
  binding: binds
[5]
  binding: binds
myc-NPM K54A
  binding: binds

B2: PinX1-M (aa142–254) (domain or fragment, UniProt Q96BK5 142-254)
chain: DLDCIFGKRQSKKTPEGDASPSTPEENETTTTSAFTIQEYFAKRMAALKNKPQVPVPGSDISETQVERKRGKKRNKEATGKDVESYLQPKAKRHTEGKPERAEAQERVAKKKS
[6]
  binding: binds weakly

B3: PinX1-N (aa1–142) (domain or fragment, UniProt Q96BK5 1-142)
chain: MSMLAERRRKQKWAVDPQNTAWSNDDSKFGQRMLEKMGWSKGKGLGAQEQGATDHIKVQVKNNHLGLGATINNEDNWIAHQDDFNQLLAELNTCHGQETTDSSDKKEKKSFSLEEKSKISKNRVHYMKFTKGKDLSSRSKTD
[6]
  binding: no binding (tested: 1 mg loaded)
